From patent US11965006B2, “Antimicrobial and anti-cancer therapy” (UNIVERSITY OF PITTSBURGH—OF THE COMMONWEALTH SYSTEM OF …, priority 2016, dated 2024)

These compounds were tested on biotic biofilm (assay: Biotic Biofilm Assay (bacteria/epithelial cell co-culture)). Conditions: FIGS. 12A and 12B, compared with LL37 and WLBU2.
Source text: The Biotic Biofilm Assay is intended to mimic the conditions in the lungs of healthy subjects and patients with pulmonary diseases such as cystic fibrosis and other disorders where infectious agents are not efficiently removed from the surface of the alveoli. FIG. 11 provides a diagram of the steps involved in the Biotic Biofilm Assay. The Biotic Biofilm Assay is based on bacteria/epithelial cell co-culture model. Primary mouse or human airway epithelial cell (AEC) cultures were established as described in previous publications (Liu, Y., Di, M. E., Chu, H. W., Liu, X., Wang, L., Wenzel, S., and Di, Y. P. (2013) Increased susceptibility to pulmonary Pseudomonas infection in Splunc1 knockout mice, J Immunol 191, 4259-4268. Liu, Y., Bartlett, J. A., Di, M. E., Bomberger, J. M., Chan, Y. R., Gakhar, L., Mallampalli, R. K., McCray, P. B., Jr., and Di, Y. P. (2013) SPLUNC1/BPIFA1 contributes to pulmonary host defense against Klebsiella pneumoniae respiratory infection, Am J Pathol 182, 1519-1531). Human AEC are extracted from human tissues obtained from UPMC Presbyterian Hospital. For mouse AEC, mice were euthanized and tracheas immediately removed. […]
Anti-biofilm properties include the disruption of a biotic biofilm performed in 96-well plates. Sonication causes the release of bacterial cells from the biofilm, CFU/mL is measured for each bacterial dilution.

Compound | anti-biofilm activity (biotic system), CFU/mL
LKKWWKTSKGLLGGLLGKVTSVIK [SEQ ID No. 13] | superior to LL37 (SEQ ID No. 25) and WLBU2 (SEQ ID No. 26)
LKKWWKTVKGLLGGLLGKVTSVIK [SEQ ID No. 14] | superior to LL37 (SEQ ID No. 25) and WLBU2 (SEQ ID No. 26)

These compounds were tested on Pseudomonas aeruginosa cultures (assay: Stability in apical epithelial secretion of ALI HBE cells (bactericidal activity retained)). Conditions: AMP at 4 μM, secretion of ALI cultured primary HBE cells.
Protocol: Apical epithelial secretion is collected from the apical site of air-liquid interface (ALI) cultured primary human epithelial (HBE) cells. Different AMPs were incubated at 4 μM with apical epithelial secretion for different periods of time (as indicated) to determine their stability. […] The stability may not due to resistance to N.E. digestion because there should be no N.E. in ALI HBE cultured cells. This observation indicates unexpected unique feature of D-WBLU2.

Compound | stability: bactericidal activity after incubation with apical epithelial secretion
CC(C)[C@H](NC(=O)[C@H](Cc1c[nH]c2ccccc12)NC(=O)[C@H](CCCNC(=N)N)NC(=O)[C@@H](N)CCCNC(=N)N)C(=O)N[C@@H](CCCNC(=N)N)C(=O)N[C@@H](CCCNC(=N)N)C(=O)N[C@@H](C(=O)N[C@@H](CCCNC(=N)N)C(=O)N[C@@H](CCCNC(=N)N)C(=O)N[C@H](C(=O)N[C@@H](Cc1c[nH]c2ccccc12)C(=O)N[C@@H](CCCNC(=N)N)C(=O)N[C@@H](CCCNC(=N)N)C(=O)N[C@H](C(=O)N[C@@H](C(=O)N[C@@H](CCCNC(=N)N)C(=O)N[C@@H](C(=O)N[C@H](C(=O)N[C@@H](CCCNC(=N)N)C(=O)N[C@@H](CCCNC(=N)N)C(=O)N[C@@H](Cc1c[nH]c2ccccc12)C(=O)N[C@@H](C(=O)N[C@@H](CCCNC(=N)N)C(=O)N[C@@H](CCCNC(=N)N)C(=O)O)C(C)C)C(C)C)C(C)C)C(C)C)C(C)C)C(C)C)C(C)C [SEQ ID No. 32] (H-RRWVRR[dV]RRVWRRV[dV]R[dV]VRRW[dV]RR-OH; N-terminus and C-terminus assumed) | no bacterial growth
CC(C)[C@H](NC(=O)[C@H](Cc1c[nH]c2ccccc12)NC(=O)[C@H](CCCNC(=N)N)NC(=O)[C@@H](N)CCCNC(=N)N)C(=O)N[C@@H](CCCNC(=N)N)C(=O)N[C@@H](CCCNC(=N)N)C(=O)N[C@@H](C(=O)N[C@@H](CCCNC(=N)N)C(=O)N[C@@H](CCCNC(=N)N)C(=O)N[C@@H](C(=O)N[C@@H](Cc1c[nH]c2ccccc12)C(=O)N[C@@H](CCCNC(=N)N)C(=O)N[C@@H](CCCNC(=N)N)C(=O)N[C@H](C(=O)N[C@@H](C(=O)N[C@@H](CCCNC(=N)N)C(=O)N[C@@H](C(=O)N[C@@H](C(=O)N[C@@H](CCCNC(=N)N)C(=O)N[C@@H](CCCNC(=N)N)C(=O)N[C@@H](Cc1c[nH]c2ccccc12)C(=O)N[C@@H](C(=O)N[C@@H](CCCNC(=N)N)C(=O)N[C@@H](CCCNC(=N)N)C(=O)O)C(C)C)C(C)C)C(C)C)C(C)C)C(C)C)C(C)C)C(C)C [SEQ ID No. 33] (H-RRWVRR[dV]RR[dV]WRRV[dV]R[dV][dV]RRW[dV]RR-OH; N-terminus and C-terminus assumed) | no bacterial growth
CC(C)[C@@H](NC(=O)[C@H](Cc1c[nH]c2ccccc12)NC(=O)[C@H](CCCNC(=N)N)NC(=O)[C@H](CCCNC(=N)N)NC(=O)[C@H](NC(=O)[C@H](NC(=O)[C@H](CCCNC(=N)N)NC(=O)[C@H](NC(=O)[C@H](NC(=O)[C@H](CCCNC(=N)N)NC(=O)[C@H](CCCNC(=N)N)NC(=O)[C@H](Cc1c[nH]c2ccccc12)NC(=O)[C@H](NC(=O)[C@H](CCCNC(=N)N)NC(=O)[C@H](CCCNC(=N)N)NC(=O)[C@H](NC(=O)[C@H](CCCNC(=N)N)NC(=O)[C@H](CCCNC(=N)N)NC(=O)[C@H](NC(=O)[C@H](Cc1c[nH]c2ccccc12)NC(=O)[C@H](CCCNC(=N)N)NC(=O)[C@@H](N)CCCNC(=N)N)C(C)C)C(C)C)C(C)C)C(C)C)C(C)C)C(C)C)C(C)C)C(=O)N[C@@H](CCCNC(=N)N)C(=O)N[C@@H](CCCNC(=N)N)C(=O)O [SEQ ID No. 34] (H-RRW[dV]RR[dV]RR[dV]WRR[dV][dV]R[dV][dV]RRW[dV]RR-OH; N-terminus and C-terminus assumed) | no bacterial growth
RRWVRRVRRVWRRVVRVVRRWVRR [SEQ ID No. 26, reference compound] | lost part of its bactericidal activity

Square brackets hold non-standard residues; d marks the D form. Ends that are not written are not given here. Peptide text beside a SMILES is read from it.
